The data set relates to ATP. Nature of the data set: switch fluorescence ratio, 500 uM ATP over buffer (Cy3 cluster intensity, sum of 5 cycles each) (fold (ratio)); higher = stronger signal-on switching upon ATP binding; sequences stand for … in TCGTCGGCAGCGTCAGATGTGTATAAGAGACAGTTTTTTTTTTTTTTTTTTTTTTTTT…TC. Conditions: aptamer strand: ATP DNA aptamer (quencher-CACCTGGGGGAGTATTGCGGAGGAAGG + anchor), 100 nM annealed; ATP concentration: 500 uM; one replicate. In outline:
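For every switch-domain sequence, the fluorescence ratio is the mean of per-cluster values, each being summed target-cycle Cy3 intensity over summed buffer-cycle Cy3 intensity. Clusters outside 100-1000 RFU were excluded. On a modified Illumina MiSeq flow-cell, the Cy3-labelled switching-strand clusters were annealed to 100 nM quencher-labelled ATP aptamer, imaged in selection buffer and then after 15 min with 500 uM ATP at 22 °C. Five such cycles were run, with NaOH stripping and re-annealing between them.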

Values marked as one replicate rest on one cluster of the flow cell; about a third of the high ones do not repeat.
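Also: ATP exposure 15 min at 22 °C before imaging.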

Turning to AACCAAGGCA, the switch fluorescence ratio was found to be 1.13.

Regarding AATTTGCCTG, the switch fluorescence ratio stood at 0.973.

Turning to AGCGCTAGAA, the switch fluorescence ratio turned out to be 0.997.

As to AGTTAAGGCA, the switch fluorescence ratio amounted to 1.02.

For the sequence GATATGACCG, the switch fluorescence ratio worked out at 1.08.

Regarding CCGAAGAAAG, the switch fluorescence ratio came to 2.58.

For TTTATCAATC, the switch fluorescence ratio is 1.13.

AAGGGCCTAC: the switch fluorescence ratio was 1.48.

In the case of GCCGAGGTTC, the switch fluorescence ratio stood at 1.01.

TGGCCGCGAC: the switch fluorescence ratio came to 1.76.

On to AAAATGGACT, for which the switch fluorescence ratio stood at 1.07.

Turning to TTTCGAAAGC, the switch fluorescence ratio turned out to be 1.5.

As to TGGCAGATTT, the switch fluorescence ratio was 1.02.

Take AAGCTAGAGA: the switch fluorescence ratio came out at 1.01.

GAACCTGTG: the switch fluorescence ratio was found to be 0.992.

CTCGGACGA: the switch fluorescence ratio is 0.947.

Take TCGCGGAAGA: the switch fluorescence ratio worked out at 1.03.

AGTTTTGTCT: the switch fluorescence ratio is 0.957.

As for TTAGCGGTTC, the switch fluorescence ratio stood at 1.06.

As for ATAATGCTA, the switch fluorescence ratio was determined as 1.01.

For the sequence GGAGATAAGA, the switch fluorescence ratio is 1.01.

As to CGTTAGCGAT, the switch fluorescence ratio stood at 1.19.

With AAGCCTACGG, the switch fluorescence ratio was 1.02.

CCACGGTAAC: the switch fluorescence ratio was found to be 1.41.

Consider CGGCGTCGCG, for which the switch fluorescence ratio worked out at 0.984.

For the sequence CAAAAACG, the switch fluorescence ratio is 1.06.

On to CGAGGAAATA, for which the switch fluorescence ratio came out at 1.24.

Take GTGGAGAGGC: the switch fluorescence ratio was found to be 1.02.

For TGCTGACGAG, the switch fluorescence ratio came to 0.987.

TAATTTGCGG: the switch fluorescence ratio is 1.11.

With GGTTACACGG, the switch fluorescence ratio was found to be 0.976.

For the sequence CAGCTTTTTT, the switch fluorescence ratio came to 0.988.

For GACTGGGTAA, the switch fluorescence ratio amounted to 1.

AGCTTAGGAC: the switch fluorescence ratio was determined as 1.01.

Consider CGCACATTGA, for which the switch fluorescence ratio is 1.14.

Take TAAAAAGTTC: the switch fluorescence ratio was determined as 1.05.

Take ACGTTGCTTC: the switch fluorescence ratio was 1.02.

Take GGTACCTCTC: the switch fluorescence ratio worked out at 0.991.

Take ATACCAGATA: the switch fluorescence ratio was determined as 0.942.

Consider TCAGTTTCCC, for which the switch fluorescence ratio is 1.01.

As to AAGTGGTGCG, the switch fluorescence ratio stood at 0.972.

Regarding CTGAGTGGG, the switch fluorescence ratio is 0.977.

For AAGGCCTCGA, the switch fluorescence ratio was determined as 1.01.

In the case of AATCCCGGGA, the switch fluorescence ratio was found to be 1.02.

On to GTATGGTTCT, for which the switch fluorescence ratio turned out to be 0.935.

AGCTTTTTCA: the switch fluorescence ratio turned out to be 1.06.

Regarding CCGAATCTTA, the switch fluorescence ratio was determined as 1.07.

For the sequence GTGCCAAAGA, the switch fluorescence ratio was 0.994.

For the sequence GCGAGGGTTA, the switch fluorescence ratio came out at 1.02.

Consider CTGCGGACCC, for which the switch fluorescence ratio was 1.19.

Take TTTCAGGCTG: the switch fluorescence ratio came to 1.01.

With CAGTTTCTGC, the switch fluorescence ratio was determined as 0.956.

For GCGCGCGATC, the switch fluorescence ratio stood at 1.28.

With TCCCTTCGAT, the switch fluorescence ratio amounted to 1.04.

On to TATGCTCTCT, for which the switch fluorescence ratio amounted to 1.03.

Consider GGAGGATGCA, for which the switch fluorescence ratio turned out to be 1.03.

As to TGGGTGCAGG, the switch fluorescence ratio worked out at 1.06.

On to AGATAATCTG, for which the switch fluorescence ratio is 1.03.

On to CGATGTAACG, for which the switch fluorescence ratio was 1.01.

Take ATTTCGGAA: the switch fluorescence ratio is 1.05.

Turning to GGTTGTGTCT, the switch fluorescence ratio worked out at 1.

With CGTGGACCCT, the switch fluorescence ratio worked out at 1.01.

On to CGCTACCGCA, for which the switch fluorescence ratio stood at 1.16.

Regarding GATATGTACT, the switch fluorescence ratio turned out to be 1.06.

Turning to GAATACCTGG, the switch fluorescence ratio worked out at 1.03.

GGTGGCTGGC: the switch fluorescence ratio worked out at 0.916.

As to CTTTTATGTT, the switch fluorescence ratio was found to be 0.936.

For AGAAGATCTC, the switch fluorescence ratio came out at 0.975.

Take GTCTATATTG: the switch fluorescence ratio was 1.01.

On to CCTTCCTAGT, for which the switch fluorescence ratio worked out at 1.82.

As for ACTGATGAAC, the switch fluorescence ratio was found to be 0.991.

Regarding CGGCGCCTCG, the switch fluorescence ratio was determined as 1.04.

TAACCCTACC: the switch fluorescence ratio came to 1.37.

ACCTGAGCGG: the switch fluorescence ratio stood at 1.05.

ACTGGTTATG: the switch fluorescence ratio was found to be 1.01.

Consider GGGACCAGTC, for which the switch fluorescence ratio was found to be 1.01.

Turning to ATATTTAGGA, the switch fluorescence ratio was determined as 0.966.

Turning to CACTGTTATC, the switch fluorescence ratio worked out at 1.12.

With TTTCATCACG, the switch fluorescence ratio worked out at 1.01.

Consider CTGTTTTAGC, for which the switch fluorescence ratio is 0.952.

Regarding GGTCTATATC, the switch fluorescence ratio was found to be 1.

With GGCAGCAACG, the switch fluorescence ratio amounted to 1.09.

On to TGGCCTTCCG, for which the switch fluorescence ratio was determined as 1.01.

Turning to ATGCGTACAT, the switch fluorescence ratio turned out to be 1.02.

With ATTGGCCGCA, the switch fluorescence ratio is 1.13.

For AAGTACTACC, the switch fluorescence ratio was 1.27.

In the case of CTAGATGTGA, the switch fluorescence ratio stood at 1.06.

With TATGTAAGTC, the switch fluorescence ratio stood at 0.997.

TTATGGCCCA: the switch fluorescence ratio is 0.961.

On to TATTTCAATA, for which the switch fluorescence ratio amounted to 1.

For CATGTTATTG, the switch fluorescence ratio stood at 1.02.

ATATAGAGCG: the switch fluorescence ratio was 0.958.

Turning to GGGAAGTAGT, the switch fluorescence ratio is 1.03.

With TAAAGCAGCA, the switch fluorescence ratio was determined as 1.04.

In the case of AGTGTGGCTA, the switch fluorescence ratio worked out at 1.02.

With AAAAGACATT, the switch fluorescence ratio is 1.05.

Take GACAGGAGTG: the switch fluorescence ratio was 0.964.

Consider TAAATTCCTG, for which the switch fluorescence ratio was determined as 1.02.

GAGCCCCCAA: the switch fluorescence ratio amounted to 1.13.

Turning to ACCTTAGCAT, the switch fluorescence ratio was found to be 1.43.

With TATGGGAAGT, the switch fluorescence ratio is 0.963.

For ATTTCACGTT, the switch fluorescence ratio was 0.994.

With CGTACAGAAA, the switch fluorescence ratio came to 1.04.

Regarding CCCAGAGTTA, the switch fluorescence ratio was found to be 1.14.

For the sequence ATATGGAGGC, the switch fluorescence ratio came to 0.964.

For TGGGGATTT, the switch fluorescence ratio turned out to be 0.994.

With TGCAGCGATC, the switch fluorescence ratio turned out to be 5.02.

Take AAGATGTTC: the switch fluorescence ratio was 1.01.

As for TTACGGGGAA, the switch fluorescence ratio is 1.05.

As for ACGGGCTGT, the switch fluorescence ratio was found to be 0.995.

TGCGCGAAGC: the switch fluorescence ratio was determined as 1.01.

TGCTCTCGCA: the switch fluorescence ratio is 1.45.

As for CCAAGATC, the switch fluorescence ratio is 1.29.

Take TGCGGAGGAC: the switch fluorescence ratio is 1.01.

As to CGTCAGGGAC, the switch fluorescence ratio was 1.04.

TATGTCGGAT: the switch fluorescence ratio was found to be 0.989.

GTTGCTGAGG: the switch fluorescence ratio was found to be 1.01.

For TACAGCGCTC, the switch fluorescence ratio worked out at 1.

Regarding CCTGCATGCT, the switch fluorescence ratio was found to be 1.66.

Regarding TGGCCACGTA, the switch fluorescence ratio worked out at 0.988.

The record behind these values is the supplement of paper PMC10126150.
